Experimental data published in PubChem BioAssay (NCATS).
Inconclusive means that the source gave no clear call. Such entries were picked first, then a sample of the others. For part of these data: Potencies beside an inconclusive call are fits to weak or partial responses and may not hold up. Activity calls are given as the source filed them. Unless noted, the call rests on the fitted dose curve; in most records, active means well fitted curve in the direction sought with a large enough effect; inconclusive means small, poorly fitted or top-dose-only effect, or another doubt; inactive means no such curve, though single readings can be large; an effect the other way counts as inactive or inconclusive.

Assays:
[1] = P-glycoprotein substrates identified in KB-8-5-11 adenocarcinoma cell line, qHTS therapeutic library screen (AID 1346987); conditions: activity change, negative = cytotoxicity: at 44.5 µM (top of the series); further: nearly all actives have a fitted effect of over 65% in size
How it was run: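 KB-8-5-11: colchicine-selected sub-line of KB-3-1 over-expressing P-gp; assay medium lacked colchicine. 72 h drug exposure at 37 degree C, CellTiter-Glo.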

[2] = qHTS of pediatric cancer cell lines to identify multiple opportunities for drug repurposing: Primary screen for SJ-GBM2 cells (AID 1347091)
How it was run: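 Cell viability, CellTiter-Glo luminescence; 500-1,000 cells/well, 8- or 11-point titration, 48 h compound exposure at 37 degrees C, 5% CO2. Controls: DMSO neutral, bortezomib 2.3 µM final as positive.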

[3] = qHTS of pediatric cancer cell lines to identify multiple opportunities for drug repurposing: Primary screen for A673 cells (AID 1347092); conditions: A673 Ewing sarcoma viability, CellTiter-Glo ATP luminescence, 48 h; activity change, negative = cytotoxic: at 46 µM (top of the series); further: nearly all actives have a fitted effect of over 45% in size
How it was run: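 Titration-based qHTS on A673 cells: MIPE compounds spanned 11 points (0.78 nM to 46 µM final), NPC compounds 8 points (0.59 nM to 46 µM final). Viability after 48 h was measured by ATP luminescence.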

[4] = qHTS of pediatric cancer cell lines to identify multiple opportunities for drug repurposing: Primary screen for BT-37 cells (AID 1347094)
How it was run: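 Primary screen of approved and investigational compounds on cells in growth media at 37 degrees C, 5% CO2. MIPE set at 11-point and NPC set at 8-point dilutions; viability scored by ATP-based luminescence at 48 hours.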

[5] = qHTS of pediatric cancer cell lines to identify multiple opportunities for drug repurposing: Primary screen for OHS-50 cells (AID 1347103); conditions: OHS-50 osteosarcoma viability, CellTiter-Glo luminescence, 48 h; activity change, negative = cytotoxic: at 57.3 µM (top of the series); further: nearly all actives have a fitted effect of over 40% in size
How it was run: (§1)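 Cells (500-1,000/well) rested 5 h, then received compounds for 48 h; metabolically active cells were measured by CellTiter-Glo luminescence. Final concentrations spanned up to 46 µM (MIPE, 11-point) or 0.59 nM-46 µM (NPC, 8-point) in primary screens, 11-point in follow-ups.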

[6] = Primary qHTS for small molecule stabilizers of the endoplasmic reticulum resident proteome: Secreted ER Calcium Modulated Protein (SERCaMP) assay (AID 1508630); conditions: SH-SY5Y GLuc-SERCaMP (Gaussia luciferase released on ER calcium loss) secretion, thapsigargin, luminescence; activity change, negative = inhibition: at 38.4 µM (top of the series) unless noted; further: potency means the concentration at half of the fitted maximal effect
How it was run: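 GLuc-SERCaMP-expressing SH-SY5Y cells, pretreated 16 h with compound, are challenged with thapsigargin to empty ER calcium stores; after 4 h, coelenterazine is added directly to the medium and luminescence is imaged.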

[7] = A High-Content qHTS Against Drug Library for the Identification of Small Molecules that Inhibit DYT1 Early Onset Primary Dystonia-Associated Cell Pathology (AID 1645839; calls by dose curve)
How it was run: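 In this high-content image screen, delE TorsinA mislocalization in inducible Flp-In 293 cells is scored as %pathology, with cell count serving as the counterscreen. Compound exposure lasts 48 h under tetracycline induction in reduced-serum medium.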

[8] = Primary qHTS for inhibitors of nuclear receptor binding SET domain protein 2 (NSD2) in an isogenic RCH-ACV NSD2 p.E1099K mutant (9B) (AID 1645876); conditions: activity change, negative = viability loss: at 44.9 µM (top of the series) unless noted; further: potency means the concentration at half of the fitted maximal effect; nearly all actives have a fitted effect of over 70% in size
[9] = Primary qHTS for inhibitors of nuclear receptor binding SET domain protein 2 (NSD2) in an RCH-ACV wild type WT cells (2C) (AID 1645877); conditions: activity change, negative = cell killing: at 44.9 µM (top of the series) unless noted; further: potency means the concentration at half of the fitted maximal effect; nearly all actives have a fitted effect of over 70% in size
CAOV3 = test: Primary qHTS to identify gynecologic anti-cancer compounds using libraries of approved drugs and bioactive compounds (AID 1345084); conditions: Gynecologic cancer cell panel viability, ATPlite luminescence, 48 h; series mostly up to 57.5 µM; further: nearly all actives have a fitted effect of over 55% in size; further: potency means the concentration at half of the fitted maximal effect
How it was run: (§2)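 Cells, 1,000 per well, were allowed to settle for 16 h at 37 C before compound addition. Five concentrations were tested for 48 h, and viability was read by ATPlite luminescence after 15 min at room temperature.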

SKOV3 = test: as above; conditions: Gynecologic cancer cell panel viability, ATPlite luminescence, 48 h; series mostly up to 57.5 µM
How it was run: as §2

[10] = qHTS of pediatric cancer cell lines to identify multiple opportunities for drug repurposing: Primary screen for SK-N-SH cells (AID 1347098); further: nearly all actives have a fitted effect of over 65% in size
How it was run: as §1

[11] = qHTS of pediatric cancer cell lines to identify multiple opportunities for drug repurposing: Primary screen for Rh30 cells (AID 1347107); further: nearly all actives have a fitted effect of over 75% in size
How it was run: as §1

[12] = target: Cytochrome P450 2C9 (Homo sapiens) (UniProt P11712); test: Cytochrome P450 family 2 subfamily C member 9 (CYP2C9) small molecule antagonists: luciferase biochemical (cell-free) qHTS assay (AID 1645842; active means well fitted curve in the direction sought with a large enough effect in the repeat runs; inconclusive means weak or mixed curves; inactive means no such curve, though single readings can be large; an effect the other way counts as inactive or inconclusive; further: potency means the concentration at half of the fitted maximal effect; nearly all actives have a fitted effect of over 55% in size)
Chain of UniProt P11712 (P11712 whole entry, looked up): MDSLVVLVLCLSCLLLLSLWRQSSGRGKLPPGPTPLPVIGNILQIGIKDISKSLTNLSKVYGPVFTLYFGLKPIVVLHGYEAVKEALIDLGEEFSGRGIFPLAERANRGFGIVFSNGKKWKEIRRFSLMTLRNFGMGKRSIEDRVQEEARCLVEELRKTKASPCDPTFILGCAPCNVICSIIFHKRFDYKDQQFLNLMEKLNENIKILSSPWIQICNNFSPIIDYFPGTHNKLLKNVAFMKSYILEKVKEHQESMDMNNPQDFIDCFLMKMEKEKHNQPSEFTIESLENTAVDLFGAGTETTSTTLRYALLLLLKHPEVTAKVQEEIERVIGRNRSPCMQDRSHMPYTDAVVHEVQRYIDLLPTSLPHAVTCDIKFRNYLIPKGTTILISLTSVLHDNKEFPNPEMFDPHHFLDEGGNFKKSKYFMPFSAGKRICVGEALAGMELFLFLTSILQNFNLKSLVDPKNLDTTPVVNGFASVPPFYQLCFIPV
How it was run: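 Luminescence, after 20 min with luciferin detection reagent, reflected CYP2C9 turnover during a 1 h NADPH-driven reaction at 37C. Enzyme-substrate mix contained 0.4% bovine serum albumin and was preincubated with compound 10 min at room temperature.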

Tov112D = test: Primary qHTS to identify gynecologic anti-cancer compounds using libraries of approved drugs and bioactive compounds (AID 1345084); conditions: Gynecologic cancer cell panel viability, ATPlite luminescence, 48 h; series mostly up to 57.5 µM; further: nearly all actives have a fitted effect of over 55% in size; further: potency means the concentration at half of the fitted maximal effect
How it was run: as §2

[13] = tested on: Zika virus NS2B-NS3 protease (unlinked complex); test: Primary screen GU Rhodamine qHTS for Zika virus inhibitors: Unlinked NS2B-NS3 protease assay (AID 1347159); conditions: Recombinant ZIKV NS2B-NS3 protease, Rhodamine110 substrate fluorescence; activity change, negative = inhibition: at 107 µM (top of the series); further: nearly all actives have a fitted effect of over 60% in size; further: potency means the concentration at half of the fitted maximal effect
How it was run: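 Compounds, tested up to 114 microM, were incubated for 15 minutes with 25 nM unlinked NS2B-NS3 protease at pH 8.0. Cleavage of 1.5 microM Rhodamine110 substrate was then followed by fluorescence for 15 minutes.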

PA-1 = test: Primary qHTS to identify gynecologic anti-cancer compounds using libraries of approved drugs and bioactive compounds (AID 1345084); conditions: Gynecologic cancer cell panel viability, ATPlite luminescence, 48 h; series mostly up to 57.5 µM; further: nearly all actives have a fitted effect of over 55% in size; further: potency means the concentration at half of the fitted maximal effect
How it was run: as §2

[14] = tested on: Zika virus NS2B-NS3 protease (linked construct); test: Primary screen NINDS Rhodamine qHTS for Zika virus inhibitors (AID 1347160)
How it was run: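 Percent inhibition, normalized to uninhibited and enzyme-free controls, is fitted to a 4-parameter Hill equation. Fluorescence change comes from a 15-min cleavage of 1.5 microM bis-peptide Rhodamine110 substrate by 25 nM linked NS2B-NS3 at room temperature.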
Tags describe the fitted curve by direction and shape.

Compound: CC(=O)N1C[C@H](O)C[C@H]1C(=O)O
- Potency [1]: inactive
- Potency [2]: inactive
- Potency [3]: inactive
- Potency [4]: inactive
- Potency [5]: inactive
- Potency [6]: inconclusive: 89.1 µM [inhibitor, full curve]
- Potency [7]: inactive
- Potency [8]: inconclusive: 26.6 µM [inhibitor, partial curve, poor fit]
- Potency [9]: inconclusive: 29.9 µM [inhibitor, single point]
- Potency (CAOV3): inactive
- Potency (SKOV3): inconclusive: 17.8 µM [rising, single point]

Compound: CC(C)C(=O)Nc1cccc(C2CN3CCSC3=N2)c1 (stereo not drawn)
- Potency [10]: inactive
- Potency [5]: inactive
- Potency [11]: inactive
- Potency [12]: inconclusive: 12.3 µM [inhibitor, partial curve]
- Potency [8]: inconclusive: 26.6 µM [inhibitor, single point]
- Potency [9]: inconclusive: 33.5 µM [inhibitor, single point]
- Potency (CAOV3): inconclusive: 4.47 µM [cytotoxic, single point]
- Potency (SKOV3): inactive
- Potency (Tov112D): inactive

Compound: COC(=O)C1=CO[C@@H](O)C2C(CO)=CCC12 (stereo partly drawn)
- Potency [13]: inactive
- Potency [8]: inconclusive: 20.5 µM [inhibitor, single point]
- Potency [9]: inconclusive: 20.5 µM [inhibitor, single point]
- Potency (CAOV3): inconclusive: 7.08 µM [rising, single point]
- Potency (PA-1): inactive

Compound: Cc1ccc(C)c(OCCn2cc(C(=O)O)c3ccccc32)c1
- Potency [13]: active: 39.8 µM
- Potency [14]: inconclusive: 39.8 µM [inhibitor, single point]
- Potency (CAOV3): inconclusive: 0.794 µM [cytotoxic, single point]
- Potency (SKOV3): inactive

Compound: C[C@@H]1CC[C@]2(C(=O)O)CC[C@]3(C)C(=CCC4[C@@]5(C)CC[C@H](O)C(C)(C)C5C(O)C[C@]43C)[C@@H]2[C@]1(C)O (stereo partly drawn)
- Potency [13]: inconclusive: 35.5 µM [inhibitor, single point]
- Potency [14]: inconclusive: 12.6 µM [inhibitor, single point]
- Potency (CAOV3): inconclusive: 3.16 µM [rising, single point]
- Potency (SKOV3): inactive
